Each compound was assayed on MLKL phosphorylation, HT29-L23 human colorectal adenocarcinoma cells (assay: cells). Settings: read-out: pMLKL HCS Cell Assay (IC50, uM).

Row | SMILES | IC50
1 | COc1ncc(-c2cc(C(F)(F)F)c3c(N)ncnn23)cc1C(=O)N[C@@H]1CN(C(=O)C(F)(F)F)C[C@@H]1F [Example 1228, 5-[4-amino-5-(trifluoromethyl)pyrrolo[2,1-f][1,2,4]triazin-7-yl]-N-[(3R,4S)-4-fluoro-1-(2,2,2-trifluoroacetyl)pyrrolidin-3-yl]-2-methoxypyridine-3-carboxamide] | 0.04 µM
2 | COc1ncc(-c2cc(C(F)(F)F)c3c(N)ncnn23)cc1C(=O)N[C@@H]1CN(C(=O)C(C)(F)C(F)(F)F)C[C@@H]1F (stereo partly drawn) [Example 1229, 5-[4-amino-5-(trifluoromethyl)pyrrolo[2,1-f][1,2,4]triazin-7-yl]-N-[(3R,4S)-4-fluoro-1-(2,3,3,3-tetrafluoro-2-methylpropanoyl)pyrrolidin-3-yl]-2-methoxypyridine-3-carboxamide] | 0.0013 µM
3 | COc1ncc(-c2cc(C(F)(F)F)c3c(N)ncnn23)cc1C(=O)N[C@@H]1CN(C(=O)[C@@](C)(OC)C(F)(F)F)C[C@@H]1F [Example 1230, 5-[4-amino-5-(trifluoromethyl)pyrrolo[2,1-f][1,2,4]triazin-7-yl]-N-[(3R,4S)-4-fluoro-1-[(2R)-3,3,3-trifluoro-2-methoxy-2-methylpropanoyl]pyrrolidin-3-yl]-2-methoxypyridine-3-carboxamide] | 0.01 µM
4 | CCC(O)(C(=O)N1C[C@H](F)[C@H](NC(=O)c2cc(-c3cc(C(F)(F)F)c4c(N)ncnn34)cnc2C)C1)C(F)(F)F (stereo partly drawn) [Example 1231, 5-[4-amino-5-(trifluoromethyl)pyrrolo[2,1-f][1,2,4]triazin-7-yl]-N-[(3R,4S)-4-fluoro-1-[2-hydroxy-2-(trifluoromethyl)butanoyl]pyrrolidin-3-yl]-2-methylpyridine-3-carboxamide] | 0.018 µM
5 | Cc1ncc(-c2cc(C(F)(F)F)c3c(N)ncnn23)cc1C(=O)N[C@@H]1CN(C(=O)CC(C)C(F)(F)F)C[C@@H]1F (stereo partly drawn) [Example 1232, 5-[4-amino-5-(trifluoromethyl)pyrrolo[2,1-f][1,2,4]triazin-7-yl]-N-[(3R,4S)-4-fluoro-1-(4,4,4-trifluoro-3-methylbutanoyl)pyrrolidin-3-yl]-2-methylpyridine-3-carboxamide] | 0.0033 µM
6 | Cc1ncc(-c2cc(C(F)(F)F)c3c(N)ncnn23)cc1C(=O)N[C@@H]1CN(C(=O)CC(C(F)(F)F)C(F)(F)F)C[C@@H]1F [Example 1233, 5-[4-amino-5-(trifluoromethyl)pyrrolo[2,1-f][1,2,4]triazin-7-yl]-N-[(3R,4S)-4-fluoro-1-[4,4,4-trifluoro-3-(trifluoromethyl)butanoyl]pyrrolidin-3-yl]-2-methylpyridine-3-carboxamide] | 0.0024 µM
7 | Cc1ncc(-c2cc(C(F)(F)F)c3c(N)ncnn23)cc1C(=O)N[C@@H]1CN(C(=O)CC(C)(O)C(F)(F)F)C[C@@H]1F (stereo partly drawn) [Example 1234, 5-[4-amino-5-(trifluoromethyl)pyrrolo[2,1-f][1,2,4]triazin-7-yl]-N-[(3R,4S)-4-fluoro-1-(4,4,4-trifluoro-3-hydroxy-3-methylbutanoyl)pyrrolidin-3-yl]-2-methylpyridine-3-carboxamide] | 0.012 µM
8 | Cc1ncc(-c2cc(C(F)(F)F)c3c(N)ncnn23)cc1C(=O)N[C@@H]1CN(C(=O)C(C)C(F)(F)F)C[C@@H]1F (stereo partly drawn) [Example 1235, 5-[4-amino-5-(trifluoromethyl)pyrrolo[2,1-f][1,2,4]triazin-7-yl]-N-[(3R,4S)-4-fluoro-1-(3,3,3-trifluoro-2-methylpropanoyl)pyrrolidin-3-yl]-2-methylpyridine-3-carboxamide] | 0.0077 µM
9 | Cc1ncc(-c2cc(C(F)(F)F)c3c(N)ncnn23)cc1C(=O)N[C@@H]1CN(C(=O)CC(O)(C(F)(F)F)C(F)(F)F)C[C@@H]1F [Example 1236, 5-[4-amino-5-(trifluoromethyl)pyrrolo[2,1-f][1,2,4]triazin-7-yl]-N-[(3R,4S)-4-fluoro-1-[4,4,4-trifluoro-3-hydroxy-3-(trifluoromethyl)butanoyl]pyrrolidin-3-yl]-2-methylpyridine-3-carboxamide] | 0.0032 µM
10 | COc1ncc(-c2cc(CN3CCC(F)(F)CC3)c3c(N)ncnn23)cc1C(=O)N[C@@H]1CN(C(=O)c2ccncc2)C[C@@H]1F [Example 1237, 5-{4-amino-5-[(4,4-difluoropiperidin-1-yl)methyl]pyrrolo[2,1-f][1,2,4]triazin-7-yl}-N-[(3R,4S)-4-fluoro-1-(pyridine-4-carbonyl)pyrrolidin-3-yl]-2-methoxypyridine-3-carboxamide] | 0.0009 µM
11 | COc1ncc(-c2cc(CN3CCC(F)(F)CC3)c3c(N)ncnn23)cc1C(=O)N[C@@H]1CN(C(=O)c2ccc(Cl)cc2)C[C@@H]1F [Example 1238, 5-{4-amino-5-[(4,4-difluoropiperidin-1-yl)methyl]pyrrolo[2,1-f][1,2,4]triazin-7-yl}-N-[(3R,4S)-1-(4-chlorobenzoyl)-4-fluoropyrrolidin-3-yl]-2-methoxypyridine-3-carboxamide] | 0.013 µM
12 | COc1ncc(-c2cc(CN3CCC(F)(F)CC3)c3c(N)ncnn23)cc1C(=O)N[C@@H]1CN(C(=O)c2cccc(F)c2)C[C@@H]1F [Example 1239, 5-{4-amino-5-[(4,4-difluoropiperidin-1-yl)methyl]pyrrolo[2,1-f][1,2,4]triazin-7-yl}-N-[(3R,4S)-4-fluoro-1-(3-fluorobenzoyl)pyrrolidin-3-yl]-2-methoxypyridine-3-carboxamide] | 0.0011 µM
13 | COc1ncc(-c2cc(CN3CCC(F)(F)CC3)c3c(N)ncnn23)cc1C(=O)N[C@@H]1CN(C(=O)c2ccccc2Cl)C[C@@H]1F [Example 1240, 5-{4-amino-5-[(4,4-difluoropiperidin-1-yl)methyl]pyrrolo[2,1-f][1,2,4]triazin-7-yl}-N-[(3R,4S)-1-(2-chlorobenzoyl)-4-fluoropyrrolidin-3-yl]-2-methoxypyridine-3-carboxamide] | 0.0013 µM
14 | COc1ncc(-c2cc(CN3CCC(F)(F)CC3)c3c(N)ncnn23)cc1C(=O)N[C@@H]1CN(C(=O)c2cc(F)ccc2F)C[C@@H]1F [Example 1241, 5-{4-amino-5-[(4,4-difluoropiperidin-1-yl)methyl]pyrrolo[2,1-f][1,2,4]triazin-7-yl}-N-[(3R,4S)-1-(2,5-difluorobenzoyl)-4-fluoropyrrolidin-3-yl]-2-methoxypyridine-3-carboxamide] | 0.00061 µM
15 | COc1ncc(-c2cc(CN3CCC(F)(F)CC3)c3c(N)ncnn23)cc1C(=O)N[C@@H]1CN(C(=O)c2c(F)cccc2F)C[C@@H]1F [Example 1242, 5-{4-amino-5-[(4,4-difluoropiperidin-1-yl)methyl]pyrrolo[2,1-f][1,2,4]triazin-7-yl}-N-[(3R,4S)-1-(2,6-difluorobenzoyl)-4-fluoropyrrolidin-3-yl]-2-methoxypyridine-3-carboxamide] | 0.00044 µM
16 | COc1ncc(-c2cc(CN3CCC(F)(F)CC3)c3c(N)ncnn23)cc1C(=O)N[C@@H]1CN(C(=O)c2c(F)cncc2F)C[C@@H]1F [Example 1243, 5-{4-amino-5-[(4,4-difluoropiperidin-1-yl)methyl]pyrrolo[2,1-f][1,2,4]triazin-7-yl}-N-[(3R,4S)-1-(3,5-difluoropyridine-4-carbonyl)-4-fluoropyrrolidin-3-yl]-2-methoxypyridine-3-carboxamide] | 0.00037 µM
17 | COc1ncc(-c2cc(CN3CCC(F)(F)CC3)c3c(N)ncnn23)cc1C(=O)N[C@@H]1CN(C(=O)c2ncccc2Cl)C[C@@H]1F [Example 1244, 5-{4-amino-5-[(4,4-difluoropiperidin-1-yl)methyl]pyrrolo[2,1-f][1,2,4]triazin-7-yl}-N-[(3R,4S)-1-(3-chloropyridine-2-carbonyl)-4-fluoropyrrolidin-3-yl]-2-methoxypyridine-3-carboxamide] | 0.0029 µM
18 | COc1ncc(-c2cc(CN3CCC(F)(F)CC3)c3c(N)ncnn23)cc1C(=O)N[C@@H]1CN(C(=O)C2(F)CC2)C[C@@H]1F [Example 1245, 5-{4-amino-5-[(4,4-difluoropiperidin-1-yl)methyl]pyrrolo[2,1-f][1,2,4]triazin-7-yl}-N-[(3R,4S)-4-fluoro-1-(1-fluorocyclopropanecarbonyl)pyrrolidin-3-yl]-2-methoxypyridine-3-carboxamide] | 0.00075 µM
19 | COc1ncc(-c2cc(CN3CCC(F)(F)CC3)c3c(N)ncnn23)cc1C(=O)N[C@@H]1CN(C(=O)CC(C)(O)C(F)(F)F)C[C@@H]1F (stereo partly drawn) [Example 1246, 5-{4-amino-5-[(4,4-difluoropiperidin-1-yl)methyl]pyrrolo[2,1-f][1,2,4]triazin-7-yl}-N-[(3R,4S)-4-fluoro-1-(4,4,4-trifluoro-3-hydroxy-3-methylbutanoyl)pyrrolidin-3-yl]-2-methoxypyridine-3-carboxamide] | 0.00072 µM
20 | COc1ncc(-c2cc(CN3CCC(F)(F)CC3)c3c(N)ncnn23)cc1C(=O)N[C@@H]1CN(C(=O)CC(C)C)C[C@@H]1F [Example 1247, 5-{4-amino-5-[(4,4-difluoropiperidin-1-yl)methyl]pyrrolo[2,1-f][1,2,4]triazin-7-yl}-N-[(3R,4S)-4-fluoro-1-(3-methylbutanoyl)pyrrolidin-3-yl]-2-methoxypyridine-3-carboxamide] | 0.00058 µM
21 | COc1ncc(-c2cc(CN3CCC(F)(F)CC3)c3c(N)ncnn23)cc1C(=O)N[C@@H]1CN(C(=O)c2ccnc(C)c2)C[C@@H]1F [Example 1248, 5-{4-amino-5-[(4,4-difluoropiperidin-1-yl)methyl]pyrrolo[2,1-f][1,2,4]triazin-7-yl}-N-[(3R,4S)-4-fluoro-1-(2-methylpyridine-4-carbonyl)pyrrolidin-3-yl]-2-methoxypyridine-3-carboxamide] | 0.0031 µM
22 | COc1ncc(-c2cc(CN3CCC(F)(F)CC3)c3c(N)ncnn23)cc1C(=O)N[C@@H]1CN(C(=O)CC(C(F)(F)F)C(F)(F)F)C[C@@H]1F [Example 1249, 5-{4-amino-5-[(4,4-difluoropiperidin-1-yl)methyl]pyrrolo[2,1-f][1,2,4]triazin-7-yl}-N-[(3R,4S)-4-fluoro-1-[4,4,4-trifluoro-3-(trifluoromethyl)butanoyl]pyrrolidin-3-yl]-2-methoxypyridine-3-carboxamide] | 0.0025 µM
